# From PubChem BioAssay AID1508624 (National Center for Advancing Translational Sciences (NCATS), 2021)
# About 120 (0.25%) of roughly 48,000 compounds were called active. Another 4% or so got no clear call; they are omitted. Calls follow the shape of the dose curve; as a rule, active = well fitted activation curve with a large enough effect; inconclusive = small, poorly fitted or top-dose-only effect, or another doubt; inactive = no such curve, though single readings can be large or run the other way. The list shows a part of the results.
# Experiment: Primary qHTS for Identification of Small Molecule Activators of Huntingtin-Antisense Promoter Activity; also: nearly all actives have a fitted effect of over 55% in size
# Settings: HEK293 HTT-AS promoter firefly luciferase reporter (activity 0% = vehicle and -100% = no light), 24 h; series mostly up to 57.5 µM; activity change, positive = activation: at the top concentration
# Method in brief: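 HEK293 luciferase promoter-reporter cells (2,500/well) plated 24 h, then compounds added at up to 57.5 uM final for 24 h at 37 °C. Firefly luminescence by Dual-Glo, normalized to vehicle (0%) and zero RLU (-100%).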
row,Structure (SMILES),"activity change, positive = activation"
1,Cc1ccc(-n2ncc3c(NC4CCCCC4)ncnc32)cc1Cl,inactive: -28%
2,COc1ccc(CNC(=O)CCCn2nc(C)c3c(C)n(-c4ccc(C)cc4)nc3c2=O)cc1OC,inactive: -5.77%
3,O=C(c1ccc2c(Cl)c3c(nc2c1)CCCC3)N1CCN(c2cccc(C(F)(F)F)c2)CC1,inactive: -14.4%
4,CCN(c1ccccc1)c1nnc(NC(=O)Nc2ccc(Br)c(C)c2)s1,inactive: 0.13%
5,O=C(CSc1nccn1Cc1ccco1)Nc1cc(C(F)(F)F)ccc1Cl,inactive: -6.18%
6,O=C(CN1C(=O)COc2ccc(S(=O)(=O)N3CCCCCC3)cc21)N1CCN(c2ccccc2F)CC1,inactive: -15.7%
7,CCOc1ccc(CNC(=O)CCS(=O)(=O)c2cc3c4c(c2)CCN4C(=O)CC3)cc1OC,inactive: -8.01%
8,CC(C)c1cc(C(=O)N2Cc3ccc(CN4CCN(C)CC4)cc3C2)c(O)cc1O,inactive: -58.4%
9,Cc1ccc(S(=O)(=O)c2cn(C)c3cc(N4CCCCCC4)c(F)cc3c2=O)cc1,inactive: -9.35%
10,Cc1ccccc1NC(=O)c1ccc2nc(Cc3ccccc3)oc2c1,inactive: 12.2%
11,CC(=O)c1ccc(NS(=O)(=O)c2cc(-c3cnc(C4CC4)o3)ccc2C)cc1,inactive: -34.8%
12,O=C(CCSCc1cnn(-c2ccccc2)c1-n1cccc1)NCc1ccccc1F,inactive: -33.3%
13,CCOc1ccc(NC(=O)c2cc3c(-c4ccccc4F)nn(C)c3s2)cc1,inactive: -3.21%
14,COc1ccccc1C(=O)Nc1c(C(=O)N(CCN(C)C)Cc2ccco2)oc2ccccc12,inactive: -23.8%
15,Cc1ccc(Cn2c(=O)n(-c3ccccc3)c(=O)c3ccc(C(=O)NCc4ccco4)cc32)cc1,inactive: -19.5%
16,C=Cc1ccc(Cn2c(C(=O)O)c(CNCc3cccs3)c3ccc(C)cc32)cc1,inactive: -40.8%
17,Cn1c(SCc2ccc(F)cc2)nc2c([nH]c3ccccc32)c1=O,inactive: -11.4%
18,COc1cccc(CNC(=O)C2CCN(c3nc4ccc(Cl)cc4[nH]3)CC2)c1,inactive: -22%
19,CCCCc1cc(=O)oc2cc(C)c3c(C)coc3c12,inactive: -12.4%
20,CSc1ncc(Cl)c(C(=O)Nc2ccc(S(=O)(=O)N3CCC(C)CC3)cc2)n1,inactive: -26.4%
21,CCOC(=O)c1cccc(NC(=O)c2ccc3c(c2)nnn3C2CCCC2)c1,inactive: -0.939%
22,Cc1ccc(C2c3c(-c4ccccc4O)n[nH]c3C(=O)N2CCCO)cc1 (configuration not stated),inactive: -33.4%
23,O=C(NCCn1cc(SCc2ccc(F)cc2)c2ccccc21)c1c(F)cccc1F,inactive: -31.2%
24,Cn1cnc(S(=O)(=O)N2CCCC(C(=O)Nc3ccc(F)cc3Cl)C2)c1 (configuration not stated),inactive: -11.6%

row,Structure (SMILES),"activity change, positive = activation"
1,Cc1ccc(Cn2c(C(=O)Nc3cccc(Cl)c3)cc3sccc32)cc1,inactive: -15.4%
2,Cn1nnnc1SCCNCc1ccccc1OCc1ccccc1F,inactive: -27.7%
3,COc1cc(C(=O)NC2CCCNC2)cc(OC)c1OC (configuration not stated),inactive: 2.57%
4,COc1ccc2c(c1)CC(NC(=O)Nc1cc(Cl)ccc1OC)CO2 (configuration not stated),inactive: -28.1%
5,CSc1nc(C)cc(Nc2c(C)cc(C)cc2C)n1,inactive: -14.7%
6,COc1cccc(C(=O)Nc2ccc(Cl)c(-c3nc4ccccc4[nH]3)c2)c1,inactive: -22%
7,CCc1ccc(OCCCSc2nc(-c3ccc(C(C)(C)C)cc3)nc3cc(=O)[nH]n23)cc1,inactive: -16.9%
8,CC(=O)c1ccc(N2CCN(S(=O)(=O)c3ccc4c(c3)CC(C)N4C(=O)C3CCC3)CC2)cc1 (configuration not stated),inactive: -20.1%
9,COC(=O)c1ccc(NS(=O)(=O)c2ccc(-n3cccn3)cc2)cc1,inactive: -18.5%
10,CC1=C(C(=O)Nc2ccccc2C)C(c2ccncc2)n2nc(SCc3ccccc3)nc2N1 (configuration not stated),inactive: -5.48%
11,CCN1CCN(c2cc(C)c3cc(NC(=O)c4cccc(C(F)(F)F)c4)ccc3n2)CC1,inactive: 0.383%
12,COc1cccc(CSc2nc3n(n2)C(c2cccs2)C(C(=O)Nc2ccccc2C)=C(C)N3)c1 (configuration not stated),inactive: -5.25%
13,COc1cn(CC(=O)Nc2ccc(F)cc2)c(CN2CCCCC2)cc1=O,inactive: -6.65%
14,CCOC(=O)c1c(N)n(-c2ccc(Cl)c(Cl)c2)c2nc3ccccc3nc12,inactive: -6.71%
15,Cc1cccc(Cn2c(CN3CCC(C(=O)NCc4cccnc4)CC3)cc3ccccc32)c1,inactive: -22.9%
16,Cc1ccc(NC(=O)Cn2c(=O)n(-c3ccc(Cl)c(Cl)c3)c(=O)c3c(C)c(C)sc32)c(C)c1,inactive: 1.71%
17,CCOC(=O)c1ccc(NC(=O)CC2C(=O)N(c3cccc(OC)c3)C(=O)N2C2CCCCC2)cc1 (configuration not stated),inactive: -15.5%
18,Cc1ccc(OCCn2cc(C(=O)C3CCCCC3)c3ccccc32)cc1,inactive: -30.4%
19,CCOC(=O)c1c(C)oc2nc(C)nc(N3CCN(c4ccc(C(C)=O)cc4)CC3)c12,inactive: 19.7%
20,CC(C)(C)OC(=O)N1CCC(c2c(C(=O)NCc3ccc(F)cc3)cnn2-c2ccc(F)cc2)CC1,inactive: -2.49%
21,COc1cccc(C(=O)N(Cc2sccc2C)C2CCS(=O)(=O)C2)c1 (configuration not stated),inactive: -7.71%
22,COc1ccc(C(=O)Nc2cc(-c3cccc(C)c3)nn2-c2ccccc2)cc1,inactive: -0.403%
23,CCN(CC)CCNC(=O)c1sc2nc3n(c(=O)c2c1C)CCCCC3,inactive: -1.58%
